From the supplement of paper PMC3334620 come the findings set out here.

Over roughly 33,000 sequences, “E-score (-0.5 to 0.5)” has its median near -0.013; the highest 2% begin near 0.3. Some of the results follow.

This assay concerns the target T1, Msn1 (UniProt P22148).
T1 sequence: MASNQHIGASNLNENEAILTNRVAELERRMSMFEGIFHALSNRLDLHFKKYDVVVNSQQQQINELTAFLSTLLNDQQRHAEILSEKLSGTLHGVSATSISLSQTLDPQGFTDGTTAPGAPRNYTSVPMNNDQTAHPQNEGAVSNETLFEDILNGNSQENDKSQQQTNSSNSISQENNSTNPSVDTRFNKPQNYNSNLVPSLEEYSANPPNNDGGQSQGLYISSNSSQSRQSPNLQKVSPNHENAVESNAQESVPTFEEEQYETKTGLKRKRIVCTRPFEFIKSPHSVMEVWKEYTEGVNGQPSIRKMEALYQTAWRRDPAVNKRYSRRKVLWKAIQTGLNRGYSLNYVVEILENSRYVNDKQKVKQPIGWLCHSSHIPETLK
The assay is described as follows: PBM E-score (8-mer binding enrichment) (E-score (-0.5 to 0.5)); higher = stronger / more preferred TF binding; most listed sequences are background and not binding sites. The following applies: protein concentration: 200 nM; construct: GST-full length. Here is the method:
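Universal 'all 10-mer' protein binding microarrays (Agilent AMADID 015681) probed with GST-tagged S. cerevisiae TFs (full-length or DBD) made by in vitro transcription/translation (PURExpress), about 100-200 nM. Bound TF was detected with fluorescent anti-GST. Each ungapped 8-mer (which stands for itself and its reverse complement) is scored by the PBM enrichment score (E-score), a modified Wilcoxon-Mann-Whitney statistic from -0.5 to +0.5, computed with the Universal PBM Analysis Suite. Scale: above 0.35 generally sequence-specific binding.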
For the sequence ATTGCACA, the “PBM E-score” value stood at 0.0243.

CGGGGAGC: the “PBM E-score” value was -0.157.

On to GAGAAGTA, for which the “PBM E-score” value was -0.151.

On to CCTGTCAC, for which the “PBM E-score” value came out at 0.0491.

Consider AGTCGAAT, for which the “PBM E-score” value was 0.0294.

For ACCCACCT, the “PBM E-score” value was -0.157.

As to AGGTGGGC, the “PBM E-score” value is -0.185.

On to AACCGTTC, for which the “PBM E-score” value was found to be 0.0531.

For the sequence GTGAAGTA, the “PBM E-score” value stood at 0.0228.

As for CCCGAGGG, the “PBM E-score” value is -0.0369.

Regarding TATAACAA, the “PBM E-score” value came out at 0.0954.

For ATTTCGTC, the “PBM E-score” value was found to be 0.109.

For the sequence CCTGTACC, the “PBM E-score” value was -0.175.

Take AATGAGAA: the “PBM E-score” value was found to be 0.0795.

Regarding CCGACAAC, the “PBM E-score” value worked out at 0.167.

Regarding ATCATGTG, the “PBM E-score” value is 0.0113.

On to AACTTAGT, for which the “PBM E-score” value was -0.075.

For the sequence GGCTCCCC, the “PBM E-score” value was -0.334.

Turning to ATAATGCG, the “PBM E-score” value is 0.0607.

Take CGGGATAC: the “PBM E-score” value is -0.00668.

As for GCCTGGGA, the “PBM E-score” value was -0.0263.

ACTGATCG: the “PBM E-score” value is -0.0817.

In the case of CATCGAAC, the “PBM E-score” value is -0.0432.

For ACGGCAGA, the “PBM E-score” value was determined as 0.0753.

AAACTACA: the “PBM E-score” value amounted to 0.0647.

Take GCCATGGC: the “PBM E-score” value is -0.165.

Take ACAGAAGC: the “PBM E-score” value was found to be 0.16.

CTCCCAGA: the “PBM E-score” value was -0.153.

For AGCACCCA, the “PBM E-score” value was -0.243.

For the sequence ATACGAAC, the “PBM E-score” value came out at 0.0898.

With GAGGGGGA, the “PBM E-score” value is -0.268.

As to AGTTCCTA, the “PBM E-score” value was -0.0032.

In the case of TACTATAA, the “PBM E-score” value was 0.161.

With CAGCAACC, the “PBM E-score” value was -0.183.

For the sequence CGAGAGCG, the “PBM E-score” value was -0.172.

Regarding GTTTACGA, the “PBM E-score” value was -0.033.

Consider ACCCATAT, for which the “PBM E-score” value was 0.0298.

Take AACGATGA: the “PBM E-score” value was -0.0234.

Regarding CCGCTCCG, the “PBM E-score” value is -0.0191.

CAGGCGCG: the “PBM E-score” value is -0.0355.

Regarding ACTCGGAG, the “PBM E-score” value was -0.0122.

ACCTGATC: the “PBM E-score” value was -0.125.

As to TATCAAGA, the “PBM E-score” value turned out to be 0.121.

On to AACGCTTG, for which the “PBM E-score” value is -0.0887.

Turning to TGTATAAA, the “PBM E-score” value is 0.0755.

Consider AAACCCTC, for which the “PBM E-score” value was -0.172.

Consider ACAGAACC, for which the “PBM E-score” value was -0.0903.

Consider CTGACTCC, for which the “PBM E-score” value was -0.272.

As to GCACGGTA, the “PBM E-score” value is -0.163.

For the sequence CTCTTAAC, the “PBM E-score” value was -0.0299.

With ACGAGAAC, the “PBM E-score” value is -0.00461.

On to ACATTTAA, for which the “PBM E-score” value was determined as 0.324.

In the case of GCCCGCAC, the “PBM E-score” value was -0.0809.

As to ACGATATG, the “PBM E-score” value was determined as 0.116.

As to ATGTACGC, the “PBM E-score” value is 0.141.

On to GCAATCAC, for which the “PBM E-score” value is 0.031.

Consider AATGAGGC, for which the “PBM E-score” value is -0.167.

In the case of ATTCCCAC, the “PBM E-score” value was determined as 0.028.

Take AAAGGCGG: the “PBM E-score” value worked out at 0.0683.

Regarding TAGGCAAA, the “PBM E-score” value stood at 0.0155.

Consider GCACTTCC, for which the “PBM E-score” value was -0.215.

Turning to AAACCACT, the “PBM E-score” value came out at 0.0652.

GCCCGGAC: the “PBM E-score” value was 0.00869.

In the case of AATAGCGA, the “PBM E-score” value is 0.211.

On to CTGATTGA, for which the “PBM E-score” value was -0.0304.

On to CCTCCGAA, for which the “PBM E-score” value came out at 0.0319.

As to GAACAGGC, the “PBM E-score” value was -0.164.

With AATACCTG, the “PBM E-score” value was -0.0275.

For the sequence ACTCGCTA, the “PBM E-score” value is -0.0369.

As to AATAGGTC, the “PBM E-score” value came to 0.0197.

With ACCGATTA, the “PBM E-score” value was -0.0202.

Consider TAATCACA, for which the “PBM E-score” value was -0.114.

On to ATGAACCG, for which the “PBM E-score” value stood at 0.113.

With ACGAAAGC, the “PBM E-score” value stood at 0.0616.

As to AATCGTCG, the “PBM E-score” value is -0.0329.

Turning to ACCTTAAG, the “PBM E-score” value was -0.0467.

In the case of CCCCGAAA, the “PBM E-score” value was 0.132.

As to GAGGTCAC, the “PBM E-score” value is -0.0184.

For CGACCCCC, the “PBM E-score” value was -0.477.

Take ACCGGTGG: the “PBM E-score” value is -0.195.

For the sequence CCACAGAC, the “PBM E-score” value was found to be 0.104.

For GGACTCAC, the “PBM E-score” value was -0.116.

AATGACCG: the “PBM E-score” value turned out to be 0.081.

In the case of CCGTCGAC, the “PBM E-score” value is -0.0376.

For GCTGATAC, the “PBM E-score” value was -0.0226.

CCCCAGGA: the “PBM E-score” value was -0.341.
